# In PubChem BioAssay AID588795 (National Center for Advancing Translational Sciences (NCATS), 2011):
# Among all 390,000 compounds or so, about 1,400 (0.36%) were called active. The shares of active, inactive and inconclusive entries below differ from those in the screen. The call rests on the fitted dose curve; in most records, active means well fitted inhibition curve with a large enough effect; inconclusive means small, poorly fitted or top-dose-only effect; inactive means no such curve, though single readings can be large or run the other way. Potencies beside an inconclusive call are fits to weak or partial responses and may not hold up.
# Molecular target: Flap endonuclease 1 (Homo sapiens) (UniProt P39748)
# Chain of UniProt P39748 (P39748 whole entry, looked up): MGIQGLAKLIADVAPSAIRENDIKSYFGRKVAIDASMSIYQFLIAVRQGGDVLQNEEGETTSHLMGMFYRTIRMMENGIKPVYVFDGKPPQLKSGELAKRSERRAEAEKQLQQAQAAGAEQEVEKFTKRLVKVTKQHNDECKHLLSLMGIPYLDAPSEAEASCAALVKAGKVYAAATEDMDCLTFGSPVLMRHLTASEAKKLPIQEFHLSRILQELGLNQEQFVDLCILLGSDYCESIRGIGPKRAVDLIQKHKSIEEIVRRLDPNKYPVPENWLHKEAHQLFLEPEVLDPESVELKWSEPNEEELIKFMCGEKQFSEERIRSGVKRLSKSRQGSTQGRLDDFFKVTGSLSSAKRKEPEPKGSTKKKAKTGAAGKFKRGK
# Assay: qHTS Assay for the Inhibitors of Human Flap endonuclease 1 (FEN1). Further: nearly all actives have a fitted effect of over 65% in size.
# Settings: Recombinant FEN1 flap cleavage, fluorescence, 15 min; series mostly up to 114 µM; activity change, negative = inhibition: at the top concentration
# Outline: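 Enzyme 10 nM, 15 min RT preincubation with compound; start with substrate 50 nM final; reads at 0 and 15 min; qHTS titration, four-parameter Hill fit.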
# On the % scale 0 is the no-effect control and ±100 the full control effect; potency means the concentration at half of the fitted maximal effect; tags describe the fitted curve by direction and shape.
Compound,"activity change, negative = inhibition",Potency
CC1CCN2c3cc(Cl)ccc3CC3(C(=O)OC(C)(C)OC3=O)C2C1 (stereo not drawn),inactive: -5.72%,
CCOC(=O)c1cc2c(ccn2C)n1Cc1ccc(C#N)cc1,,"inconclusive: 28.2 µM [inhibitor, partial curve, poor fit]"
Brc1cccc[n+]1CCCC[n+]1ccccc1Br,,active: 79.4 µM
Cc1cc(Nc2ccc3c(c2)OCCO3)c2cccc(C)c2n1,,"inconclusive: 79.4 µM [inhibitor, partial curve, poor fit]"
COc1ccc(Br)cc1C(=O)Nc1ccc(Cc2ccncc2)cc1,,"inconclusive: 89.1 µM [inhibitor, single point]"
Cc1cc2nc(-c3ccc(SCc4ccc(C(=O)O)cc4)nc3)[nH]c2cc1C,,"inconclusive: 50.1 µM [inhibitor, partial curve]"
CCOC(=O)Cn1c(=N)n(CCOc2cccc(C)c2)c2ccccc21,inactive: -1.05%,
COC(=O)C(=O)/C=C(\O)c1ccc(C)cc1,,"inconclusive: 56.2 µM [inhibitor, partial curve, poor fit]"
Nc1nc(C2CC2)c(Sc2sc(N)nc2C2CC2)s1,,"inconclusive: 89.1 µM [inhibitor, partial curve, poor fit]"
Cc1cc(C)c2oc(-c3ccc(C)c(NC(=O)/C=C/c4ccco4)c3)nc2c1,,"inconclusive: 79.4 µM [inhibitor, partial curve, poor fit]"
COc1ccc2cc1Oc1ccc(cc1)CC1c3c(cc(OC)c4c3Oc3cc5c(cc3O4)CCNC5C2)CCN1C (stereo not drawn),,"inconclusive: 3.98 µM [inhibitor, partial curve, poor fit]"
Cc1cccc(C(=O)Nc2ccccc2C(=O)OCc2c(C)noc2C)c1,,"inconclusive: 56.2 µM [inhibitor, partial curve, poor fit]"
COc1ccc(S(=O)(=O)N2CCOCC2)cc1NC(=O)CSc1cccc[n+]1[O-],,"inconclusive: 89.1 µM [inhibitor, single point]"
COC(=O)CSc1nnc(-c2ccccc2OC)n1-c1ccc(C)cc1,inactive: -4.69%,
CN1CCc2c(sc(NC(=O)C3CCN(S(=O)(=O)c4cccs4)CC3)c2C(N)=O)C1,,"inconclusive: 100 µM [inhibitor, single point]"
O=C(CN1CCN(C2CCCCC2)CC1)Nc1ccccc1N1CCCCC1,,"inconclusive: 39.8 µM [inhibitor, single point]"
COc1ccc(CC(=O)NCC(c2cccs2)S(=O)(=O)c2ccc(Cl)cc2)cc1 (stereo not drawn),inactive: -20.6%,
COc1ccccc1C(=O)c1cn(CC(=O)Nc2ccccc2F)c2nc(C)ccc2c1=O,inactive: 0.0631%,
NS(=O)(=O)c1ccc(N/N=C/c2ccc(O)c(O)c2O)c([N+](=O)[O-])c1,,active: 10 µM
CC(=O)c1ccc(NC(=O)Nc2ccc3c(c2)N(C)C(=O)CS3)cc1,,"inconclusive: 44.7 µM [inhibitor, partial curve]"
CCCn1c2ccccc2c2cnn(CC(=O)Nc3ccc(C)cc3Br)c(=O)c21,inactive: -1.24%,

Compound,"activity change, negative = inhibition",Potency
O=C(NC(=S)NCC1COc2ccccc2O1)c1ccccc1 (stereo not drawn),,"inconclusive: 79.4 µM [inhibitor, partial curve, poor fit]"
COc1ccc(-c2cc(-c3ccccc3)nc(N)n2)c(O)c1,,"inconclusive: 79.4 µM [inhibitor, partial curve]"
CN(C)c1ccc2ccc3cccc4ccc1c2c34,,"inconclusive: 50.1 µM [inhibitor, partial curve, poor fit]"
COc1ccccc1NC(=O)c1cc2c(CO)cnc(C)c2oc1=Nc1ccc(OC)c(OC)c1,,"inconclusive: 3.98 µM [inhibitor, partial curve, poor fit]"
CCCOc1ccc(Cc2nn3c(=O)/c(=C/c4ccco4)sc3nc2=O)cc1,,"inconclusive: 50.1 µM [inhibitor, partial curve, poor fit]"
CCc1cc(C(N)=O)c(NC(=O)c2ccc(OC)cc2)s1,,"inconclusive: 63.1 µM [inhibitor, partial curve, poor fit]"
Cc1n[nH]c(=S)n(NC(=O)/C=C/C(=O)Nn2c(=S)[nH]nc(C)c2=O)c1=O,,active: 44.7 µM
Cc1ccc(CNc2ccc(O)cc2)cc1,,"inconclusive: 56.2 µM [inhibitor, partial curve, poor fit]"
COc1ccc([C@H]2CC(=O)C=C(c3ccnc4ccc(Cl)cc34)C2)cc1,,"inconclusive: 79.4 µM [inhibitor, partial curve, poor fit]"
C#CCOCCOCCOCCNc1nc(N2CCN(C(=O)CCCCCCCCCCNC(=O)Cn3cc(CCCCCN)nn3)CC2)nc(N2CCN(C(=O)CCCCCCCCCCNC(=O)[C@H](CO)n3cc(CCCCCN)nn3)CC2)n1,,"inconclusive: 89.1 µM [inhibitor, single point]"
COc1ccc(CNC(=O)CCSCc2cccc(Cl)c2)c(OC)c1,,"inconclusive: 89.1 µM [inhibitor, partial curve, poor fit]"
Cc1c(CC(=O)O)c(=O)oc2c(C)c(OCc3ccccc3Br)ccc12,,"inconclusive: 89.1 µM [inhibitor, single point]"
CCOc1ccccc1NC(=O)C(=O)CC(=O)c1cccc(OC)c1,,"inconclusive: 25.1 µM [inhibitor, partial curve, poor fit]"
CC(C)CCNC(=O)C1CCN(S(=O)(=O)c2cccc3nsnc23)CC1,inactive: 0.646%,
CCCCNS(=O)(=O)c1cc(-c2nn(C)c(=O)c3ccccc23)ccc1C,inactive: -12.7%,
N#Cc1cn(N2CCCCC2)c(=O)[nH]c1=O,inactive: -4.9%,
CCO[C@H]1OC(C(=O)NCc2nc3ccccc3[nH]2)=C[C@@H](C2CCCCC2)[C@@H]1CCCO,,"inconclusive: 89.1 µM [inhibitor, partial curve, poor fit]"
O=c1cc[nH]c2c1ccc1c(=O)cc[nH]c12,,"inconclusive: 44.7 µM [inhibitor, partial curve]"
O=C(O)c1cccc(Nc2cc(Cl)c3nonc3c2[N+](=O)[O-])c1,,"inconclusive: 39.8 µM [inhibitor, single point]"
COc1ccccc1-n1ccnc1SCC(=O)NCC1CCCO1 (stereo not drawn),inactive: 1.91%,
c1ccc(-c2cc3c(-n4cccc4)ncnc3o2)cc1,,"inconclusive: 100 µM [inhibitor, single point]"

Compound,"activity change, negative = inhibition",Potency
O=C(C1=C[C@@H](C2CCCCC2)C[C@@H](OCc2ccc(CO)cc2)O1)N1CCN(Cc2ccccc2)CC1,,"inconclusive: 79.4 µM [inhibitor, partial curve, poor fit]"
CCn1c(SCc2ccc(F)cc2Cl)nc(=O)c2c(C(=O)OC)cc(C3CC3)nc21,inactive: -22.8%,
CCCCCCCCOC(=O)C1=C(C)Nc2nnnn2C1c1cccs1 (stereo not drawn),,"inconclusive: 50.1 µM [inhibitor, partial curve, poor fit]"
NC1=C(Cl)C(=O)c2ccccc2C1=O,,"inconclusive: 79.4 µM [inhibitor, partial curve, poor fit]"
CCOc1ccc2nc(C)cc(Nc3ccc4c(c3)OCCO4)c2c1,,"inconclusive: 44.7 µM [inhibitor, partial curve]"
Cc1cc(C)c(S(=O)(=O)NCC23C=CC(O2)C2C(=O)N(c4ccccc4)C(=O)C23)c(C)c1 (stereo not drawn),inactive: -0.469%,
O=S(=O)(O)c1cccc2c(N=Nc3ccc(O)c4ncccc34)cccc12,,"inconclusive: 14.1 µM [inhibitor, full curve, poor fit]"
Cc1c(C(=O)OCC2CCCO2)[nH]c2c1C(=O)CC(c1ccco1)C2 (stereo not drawn),,"inconclusive: 56.2 µM [inhibitor, partial curve, poor fit]"
CCn1nc(C(=O)NCC2COc3ccccc3O2)c2ccccc2c1=O (stereo not drawn),,"inconclusive: 12.6 µM [inhibitor, partial curve, poor fit]"
Nc1nonc1-n1nnc(C(=O)N/N=C/c2cccc(Cl)c2)c1CN1CCCC1,inactive: 2.24%,
CCOC(=O)c1ccc(NC(=O)CCc2c(C)nc3c(c(C)nn3C(C)(C)C)c2C)cc1,,"inconclusive: 89.1 µM [inhibitor, partial curve, poor fit]"
CC1(C)S[C@@H]2[C@H](NC(=O)COc3ccccc3)C(=O)N2C1C(=O)OCC1CCCCC1 (stereo partly drawn),,"inconclusive: 79.4 µM [inhibitor, partial curve, poor fit]"
S=c1[nH]nc(-c2ccncc2)n1/N=C/C=C/c1ccco1,,"inconclusive: 89.1 µM [inhibitor, partial curve, poor fit]"
C/C(=N\Nc1ccc([N+](=O)[O-])cc1)c1ccc(O)cc1,,"inconclusive: 79.4 µM [inhibitor, partial curve, poor fit]"
COC(=O)c1c(-c2cccs2)csc1NC(=O)c1cc(OC)c(OC)c(OC)c1,,"inconclusive: 79.4 µM [inhibitor, partial curve]"
O=c1c2ccccc2sn1-c1cc(S(=O)(=O)N2CCOCC2)ccc1N1CCCCC1,,"inconclusive: 89.1 µM [inhibitor, single point]"
[O-]/[N+](=C\c1ccccc1)c1ccc(Br)cc1,,"inconclusive: 89.1 µM [inhibitor, single point]"
CC(C)(C)n1ncc2c(=O)n(Cc3cc(C(F)(F)F)ccc3Cl)cnc21,inactive: -25.6%,
Cc1nc2ccccc2c2oc(C(=O)N3CCC(N4CCCCC4)CC3)cc12,,"inconclusive: 22.4 µM [inhibitor, full curve]"
O=C1C=C(O)CC(c2ccco2)C1 (stereo not drawn),,"inconclusive: 56.2 µM [inhibitor, partial curve, poor fit]"
Cc1cccc2c(N)c3c(nc12)CCCC3 (tested in a mixture with another compound),,"inconclusive: 79.4 µM [inhibitor, partial curve, poor fit]"
